The supplement of paper PMC3334620
Over roughly 33,000 sequences, “E-score (-0.5 to 0.5)” has its median near -0.032; the highest 2% begin near 0.36. This is one part of the list.

target: T1, Sko1 (UniProt Q02100); assay: PBM E-score (8-mer binding enrichment) (E-score (-0.5 to 0.5)); higher = stronger / more preferred TF binding; most listed sequences are background and not binding sites; conditions: protein concentration: 200 nM; construct: GST-full length
T1 sequence: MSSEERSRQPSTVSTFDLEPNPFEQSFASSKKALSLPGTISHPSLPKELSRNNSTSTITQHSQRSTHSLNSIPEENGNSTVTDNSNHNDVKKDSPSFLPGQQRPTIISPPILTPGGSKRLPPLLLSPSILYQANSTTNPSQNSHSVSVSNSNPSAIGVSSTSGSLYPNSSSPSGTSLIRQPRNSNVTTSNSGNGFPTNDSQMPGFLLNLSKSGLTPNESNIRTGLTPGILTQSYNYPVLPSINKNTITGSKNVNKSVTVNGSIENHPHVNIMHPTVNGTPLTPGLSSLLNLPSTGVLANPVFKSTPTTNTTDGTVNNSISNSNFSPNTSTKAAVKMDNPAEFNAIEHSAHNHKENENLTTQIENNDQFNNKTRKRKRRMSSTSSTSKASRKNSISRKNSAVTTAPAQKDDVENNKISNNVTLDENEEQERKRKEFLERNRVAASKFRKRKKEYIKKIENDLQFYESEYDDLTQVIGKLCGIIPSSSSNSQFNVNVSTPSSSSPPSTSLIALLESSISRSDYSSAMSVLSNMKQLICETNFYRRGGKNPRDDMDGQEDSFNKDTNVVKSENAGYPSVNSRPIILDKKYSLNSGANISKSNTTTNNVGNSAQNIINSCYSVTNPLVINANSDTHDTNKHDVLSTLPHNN
Protocol: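 Universal 'all 10-mer' protein binding microarrays (Agilent AMADID 015681) probed with GST-tagged S. cerevisiae TFs (full-length or DBD) made by in vitro transcription/translation (PURExpress), about 100-200 nM. Bound TF was detected with fluorescent anti-GST. Each ungapped 8-mer (which stands for itself and its reverse complement) is scored by the PBM enrichment score (E-score), a modified Wilcoxon-Mann-Whitney statistic from -0.5 to +0.5, computed with the Universal PBM Analysis Suite. Scale: above 0.35 generally sequence-specific binding.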

Sequence	PBM E-score
ACAACGGG	-0.0547
AGAATCAC	0.108
CCACGTCG	0.168
CGACTAGA	-0.0947
CCAGGCTA	-0.405
ACTCACCG	-0.128
CATTTGAC	0.19
CCGACGGA	-0.237
GTAGGACA	0.0127
CTTGAGCA	-0.161
ACGGCAAT	0.174
CAGGCTCG	-0.106
TCACGTGA	0.336
GTCCCAAA	-0.0266
CTAACTAC	0.107
GCGACTCA	-0.134
GGAACAAA	0.101
GAAAATTA	0.135
CTAGGACC	-0.305
AGTAGAGA	-0.0942
TACCGGAA	0.0144
CTCGGTAC	-0.0539
CCCGACAA	-0.0755
CCCGCGTA	0.0208
ACAATGGG	-0.0973

Sequence	PBM E-score
GCGCTCAC	-0.126
CGTCTGTA	0.0784
AGTATAAA	0.141
AGGATGAA	-0.0733
ATGGGCAC	-0.0936
GAGCGGGC	-0.221
AGACAATC	0.0537
AAAGCTCA	0.0637
GAAACCCA	-0.107
CTTAACAA	0.0987
AGTCCCGG	-0.356
ATCTGTTG	-0.116
TGAGACCA	0.0502
CACGTTAA	0.244
AGCTGCGG	-0.224
GCGCTATA	0.0962
ACAGATCG	-0.0395
CTGCACGC	-0.147
AAGCCTAG	-0.0672
GCTTATAA	0.11
ACCGCAGA	-0.179
TCTCGAGA	0.0362
AGATCAAT	-0.103
AGGTCTAT	-0.101
CTATATGC	0.0474

Sequence	PBM E-score
CGACGCTA	-0.00059
GATCTAGC	-0.135
CCGATAAG	-0.199
AATTTGAA	0.096
AGCCGAGG	-0.0722
ACATGTTA	0.242
CTAGTATC	-0.069
AACATACT	0.0365
CATAAGCA	-0.085
TAACACCA	0.143
ACATTATG	0.175
AGGTGTGC	-0.152
AGCCTTAG	-0.157
GATTGAAA	0.073
CCCGTGCA	-0.28
CCTCAGAG	-0.374
TACGCGCA	0.209
ACGACAGT	0.126
AATACTCA	0.145
GTCCCAGA	-0.233
CGAACATC	-0.0609
AGTCTGGC	-0.216
CTCACGAC	-0.102
CCCAAAAG	-0.0879
AAGGCTGG	-0.203

Sequence	PBM E-score
AGTGGAGA	-0.0245
ATAGGGGG	-0.393
ATAGTGGC	0.0864
AAGGAACG	-0.0151
ATCATACG	0.365
AGCCGCCG	-0.134
AACACCTG	0.133
ATACTGAA	0.185
CATACTGG	0.0303
GTTCTGTA	0.0879
ATACGAGC	0.174
AGAACATA	0.1
ACTTCAGG	-0.126
CAACGCCA	-0.00072
TTCCCAAA	0.105
CATGCTGA	-0.0126
GCCCTATA	-0.184
ATCCGGCC	-0.275
CTTGACAC	-0.0385
ACGTGCGC	0.381
TAAAAAGA	0.119
ACGACGAC	0.00819
ATGTGTAA	0.121
CAGTGCGC	-0.182
GAACATCA	0.0684

Sequence	PBM E-score
GCTCGTCC	-0.0225
AGGCTATG	-0.23
GAGTTAAC	-0.0263
CCAGGCGC	-0.211
CGTGATTA	0.314
CTGGAACC	-0.202
AACCAGCT	0.133
AGTCAGAT	-0.00841
CTTAACGC	-0.00058
ACCCCAGG	-0.411
CGTTGACC	0.107
CCAATGGA	-0.215
CAGCTGGC	-0.162
GAAGCATC	-0.0844
CGAAATAC	0.298
GTTGCGTA	0.422
AAGCTATA	0.0223
CAAGGGTC	-0.229
AGCAAATA	0.0649
GGCTCTAA	-0.0936
CAGCCATG	-0.143
CGTAACGC	0.34
AGGTCAAG	-0.193
GCAGCTCC	-0.268
CCCGCTTA	-0.106

Sequence	PBM E-score
TACTAGAA	0.124
GGTTAGAA	0.00193
ATCTCGTA	0.319
CGAGGTGC	0.00617
GCTAGCTA	-0.0689
ACGTAAGC	0.455
AACGGAGT	-0.09
ATGGAGAC	-0.0982
ATTATATC	0.232
CATGCACC	-0.195
CTCGAGTC	-0.129
GAGCCCAA	-0.0851
GGTATGAA	0.0631
CTGCGTGA	0.188
AAGATTGC	-0.0262
GGGTTGCA	-0.00077
CGGTATTC	-0.043
CCAGATAG	-0.133
AAAGTTAT	0.265
GTCCCACA	-0.00469
AGTAACTC	-0.0356
AACTTGAG	-0.0272
ATGTGCTA	0.174
CGACCATC	-0.16
CATCCACA	0.0411

Sequence	PBM E-score
ACGCTAAG	-0.0101
GGACAGGA	-0.217
GTAGTACA	0.171
ATCACGAT	0.208
ATCGAAGG	0.0197
GTGTGAAA	0.129
CCCACCGA	-0.182
GGCAGATA	-0.0846
GCCGTCGC	-0.133
CTATCTGA	-0.135
CGATTTCC	-0.108
CAGGTCAC	-0.288
TAATCTGA	0.155
ACGCTTTA	0.026
GGTTAAGA	0.0672
ACGCAGAG	0.108
CAGGCGAC	-0.08
AGCAAAGG	-0.163
GGCGATTA	0.0687
AATGCTAA	0.102
AGTGTGGG	-0.197
CTTTTATC	-0.0451
